The labels stand for the following.
T1: RBFOX1 RRM (Homo sapiens, UniProt Q9NWB1 109-208)
T1 sequence: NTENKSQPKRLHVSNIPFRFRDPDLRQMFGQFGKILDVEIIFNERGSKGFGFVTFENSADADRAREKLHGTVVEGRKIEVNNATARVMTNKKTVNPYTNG

B1: UCGUCUG (DNA:RNA)
RNA: GGGAGACCGGAAUUCAGAUUGUCCUCGUCUGUUAAAUCCCGUCGUAGCCACCA
DNA 1: CAATCTGAATTCCGGTCTCCC
DNA 2: TGGTGGCTACGACGGGATT
B2: UUAGGCC (DNA:RNA)
RNA: B1 RNA with C26U, G27A, U28G, C29G, U30C, G31C
DNA 1: CAATCTGAATTCCGGTCTCCC
DNA 2: TGGTGGCTACGACGGGATT
B3: GCGAGUG (DNA:RNA)
RNA: B1 RNA with U25G, U28A, C29G
DNA 1: CAATCTGAATTCCGGTCTCCC
DNA 2: TGGTGGCTACGACGGGATT
B4: UCGCCGG (DNA:RNA)
RNA: B1 RNA with U28C, U30G
DNA 1: CAATCTGAATTCCGGTCTCCC
DNA 2: TGGTGGCTACGACGGGATT
B5: GAUGCAG (DNA:RNA)
RNA: B1 RNA with U25G, C26A, G27U, U28G, U30A
DNA 1: CAATCTGAATTCCGGTCTCCC
DNA 2: TGGTGGCTACGACGGGATT
B6: UCCGUAG (DNA:RNA)
RNA: B1 RNA with G27C, U28G, C29U, U30A
DNA 1: CAATCTGAATTCCGGTCTCCC
DNA 2: TGGTGGCTACGACGGGATT
B7: CCAGGAC (DNA:RNA)
RNA: B1 RNA with U25C, G27A, U28G, C29G, U30A, G31C
DNA 1: CAATCTGAATTCCGGTCTCCC
DNA 2: TGGTGGCTACGACGGGATT
B8: GCUCUUA (DNA:RNA)
RNA: B1 RNA with U25G, G27U, U28C, C29U, G31A
DNA 1: CAATCTGAATTCCGGTCTCCC
DNA 2: TGGTGGCTACGACGGGATT
B9: UUACAAG (DNA:RNA)
RNA: B1 RNA with C26U, G27A, U28C, C29A, U30A
DNA 1: CAATCTGAATTCCGGTCTCCC
DNA 2: TGGTGGCTACGACGGGATT
B10: ACGCAGC (DNA:RNA)
RNA: B1 RNA with U25A, U28C, C29A, U30G, G31C
DNA 1: CAATCTGAATTCCGGTCTCCC
DNA 2: TGGTGGCTACGACGGGATT
B11: CAUGUUG (DNA:RNA)
RNA: B1 RNA with U25C, C26A, G27U, U28G, C29U
DNA 1: CAATCTGAATTCCGGTCTCCC
DNA 2: TGGTGGCTACGACGGGATT
B12: AGCGUGC (DNA:RNA)
RNA: GGGAGACCGGAAUUCAGAUUGUCCAGCGUGCUUAAAUCCCGUCGUAGCCACCA
DNA 1: CAATCTGAATTCCGGTCTCCC
DNA 2: TGGTGGCTACGACGGGATT
B13: CUCCGUG (DNA:RNA)
RNA: B1 RNA with U25C, C26U, G27C, U28C, C29G
DNA 1: CAATCTGAATTCCGGTCTCCC
DNA 2: TGGTGGCTACGACGGGATT
B14: UCCCCAU (DNA:RNA)
RNA: B1 RNA with G27C, U28C, U30A, G31U
DNA 1: CAATCTGAATTCCGGTCTCCC
DNA 2: TGGTGGCTACGACGGGATT
B15: UAGAACA (DNA:RNA)
RNA: B1 RNA with C26A, U28A, C29A, U30C, G31A
DNA 1: CAATCTGAATTCCGGTCTCCC
DNA 2: TGGTGGCTACGACGGGATT
B16: UCCUCGU (DNA:RNA)
RNA: B1 RNA with G27C, U30G, G31U
DNA 1: CAATCTGAATTCCGGTCTCCC
DNA 2: TGGTGGCTACGACGGGATT
B17: CAUUUUG (DNA:RNA)
RNA: B1 RNA with U25C, C26A, G27U, C29U
DNA 1: CAATCTGAATTCCGGTCTCCC
DNA 2: TGGTGGCTACGACGGGATT
B18: GACGACA (DNA:RNA)
RNA: B12 RNA with A25G, G26A, U29A, G30C, C31A
DNA 1: CAATCTGAATTCCGGTCTCCC
DNA 2: TGGTGGCTACGACGGGATT
B19: UUCGGUA (DNA:RNA)
RNA: B12 RNA with A25U, G26U, U29G, G30U, C31A
DNA 1: CAATCTGAATTCCGGTCTCCC
DNA 2: TGGTGGCTACGACGGGATT
B20: GAUGUUA (DNA:RNA)
RNA: B12 RNA with A25G, G26A, C27U, G30U, C31A
DNA 1: CAATCTGAATTCCGGTCTCCC
DNA 2: TGGTGGCTACGACGGGATT
B21: CAAUAGU (DNA:RNA)
RNA: B12 RNA with A25C, G26A, C27A, G28U, U29A, C31U
DNA 1: CAATCTGAATTCCGGTCTCCC
DNA 2: TGGTGGCTACGACGGGATT
B22: UGCGAAU (DNA:RNA)
RNA: B12 RNA with A25U, U29A, G30A, C31U
DNA 1: CAATCTGAATTCCGGTCTCCC
DNA 2: TGGTGGCTACGACGGGATT
B23: AGGAGGU (DNA:RNA)
RNA: B12 RNA with C27G, G28A, U29G, C31U
DNA 1: CAATCTGAATTCCGGTCTCCC
DNA 2: TGGTGGCTACGACGGGATT
B24: GCACUUU (DNA:RNA)
RNA: B1 RNA with U25G, G27A, U28C, C29U, G31U
DNA 1: CAATCTGAATTCCGGTCTCCC
DNA 2: TGGTGGCTACGACGGGATT
B25: GCGAGGA (DNA:RNA)
RNA: B1 RNA with U25G, U28A, C29G, U30G, G31A
DNA 1: CAATCTGAATTCCGGTCTCCC
DNA 2: TGGTGGCTACGACGGGATT
B26: UCCGCCA (DNA:RNA)
RNA: B1 RNA with G27C, U28G, U30C, G31A
DNA 1: CAATCTGAATTCCGGTCTCCC
DNA 2: TGGTGGCTACGACGGGATT
B27: ACUUCAA (DNA:RNA)
RNA: B1 RNA with U25A, G27U, U30A, G31A
DNA 1: CAATCTGAATTCCGGTCTCCC
DNA 2: TGGTGGCTACGACGGGATT
B28: GACGGGC (DNA:RNA)
RNA: B12 RNA with A25G, G26A, U29G
DNA 1: CAATCTGAATTCCGGTCTCCC
DNA 2: TGGTGGCTACGACGGGATT
B29: GUCUUCA (DNA:RNA)
RNA: B12 RNA with A25G, G26U, G28U, G30C, C31A
DNA 1: CAATCTGAATTCCGGTCTCCC
DNA 2: TGGTGGCTACGACGGGATT
B30: UUCGAUC (DNA:RNA)
RNA: B12 RNA with A25U, G26U, U29A, G30U
DNA 1: CAATCTGAATTCCGGTCTCCC
DNA 2: TGGTGGCTACGACGGGATT
B31: CUAGACU (DNA:RNA)
RNA: B12 RNA with A25C, G26U, C27A, U29A, G30C, C31U
DNA 1: CAATCTGAATTCCGGTCTCCC
DNA 2: TGGTGGCTACGACGGGATT

Substitutions are numbered along the chain they refer to; changes in the protein carry UniProt numbers. The list shows a part of the results.

The assay addresses T1, RBFOX1 RRM. The experiment in a line: EMSA; HiTS-Eq, 1 nM pool, 10 min; buffer printed only for the single-RNA assays: 10 mM Tris pH 7.5, 150 mM NaCl, 3.4 mM EDTA, 0.001% NP-40, 30 C. The conditions noted are these: tags: His6 N-terminal (pET28a); label: 5' 32P. In a few lines: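 Purified RbFox RRM (wild type or mutant) was equilibrated for 10 min in 50 µL with 1 nM of a 5′-radiolabelled pool of RNA with 7 randomized nucleotides, its flanks annealed to DNA oligonucleotides, across increasing protein concentrations. Free RNA was separated by 8% native PAGE, excised, reverse-transcribed, PCR-barcoded and sequenced on an Illumina HiSeq 2500. Relative association constants came from read-count changes of each variant against the control reaction, normalised to the cognate motif.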
For the molecule B1, the binding signal is 0.0174 KA relative to UGCAUGU.
On to B2, for which the binding signal was 0.0133 KA relative to UGCAUGU.
For B3 the value was 0.0264 KA relative to UGCAUGU.
For the molecule B4, the binding signal is 0.0169 KA relative to UGCAUGU.
The value for B5 was 0.0176 KA relative to UGCAUGU; that for B6 was 0.00757 KA relative to UGCAUGU.
The value for B7 was 0.00714 KA relative to UGCAUGU; that for B8 was 0.00619 KA relative to UGCAUGU; that for B9 was 0.00798 KA relative to UGCAUGU.
The value for B10 was 0.00735 KA relative to UGCAUGU.
Consider B11, for which the binding signal is 0.0132 KA relative to UGCAUGU.
For B12 the value was 0.023 KA relative to UGCAUGU.
The value for B13 was 0.0111 KA relative to UGCAUGU; that for B14 was 0.000747 KA relative to UGCAUGU.
Turning to B15, the binding signal is 0.00656 KA relative to UGCAUGU.
As to B16, the binding signal is 0.00697 KA relative to UGCAUGU.
For the molecule B17, the binding signal is 0.0141 KA relative to UGCAUGU.
The value for B18 was 0.00401 KA relative to UGCAUGU; that for B19 was 0.012 KA relative to UGCAUGU; that for B20 was 0.00976 KA relative to UGCAUGU.
For B21 the value was 0.000926 KA relative to UGCAUGU; for B22, 0.0154 KA relative to UGCAUGU; for B23, 0.0162 KA relative to UGCAUGU.
The value for B24 was 0.00914 KA relative to UGCAUGU.
Take B25: the binding signal is 0.00797 KA relative to UGCAUGU.
For the molecule B26, the binding signal was 0.0057 KA relative to UGCAUGU.
Turning to B27, the binding signal is 0.000968 KA relative to UGCAUGU.
The value for B28 was 0.0152 KA relative to UGCAUGU; that for B29 was 0.0081 KA relative to UGCAUGU.
B30: the binding signal was 0.0116 KA relative to UGCAUGU.
For B31 the value was 0.00641 KA relative to UGCAUGU.

Values taken from publication PMC9911399, “Two distinct binding modes provide the RNA-binding protein RbFox with extraordinary sequence specificity”.
